Among all 150,000 compounds or so, about 540 (0.36%) showed an effect of 50% or more. This is one part of the list.
What follows are compounds tested on Plasmodium falciparum (assay: Primary screen in NF54 nanoGlo assay, in single point, at 2uM, 72h; a lower Z score goes with more inhibition). Details: timepoint 72 hour.
Format: functional, Erythrocyte

Compound	% Inhibition [%]	Z score
Cc1cc(CCCOCc2ccccc2)nc(N)n1	7	-1.05
O=C(Cn1ccnc1)N[C@H]1CCCOc2c1ccc1ccccc21	-10	1.86
CN1C(=O)C[C@H](C(=O)NCc2ccc(Cl)cn2)[C@H]1c1cccnc1	-12	1.66
Cc1nc(C(C)C)nc(N2CCN(C(=O)c3ccccc3Cl)CC2)c1Cc1ccccc1F	2	-0.2
COCCC[C@H]1CCCCN1CCn1cccn1	-15	1.69
O=C(CN1C(=O)CCc2cc(S(=O)(=O)N3CCCC3)ccc21)NC1CC1	-5	0.94
O=C(N[C@H]1CC12CCC2)N1CC(Cc2ccco2)C1	-7	0.68
CC(C)n1c(=O)n(CC(=O)NCCCc2ccccc2)c2cc(S(=O)(=O)N3CCCC3)ccc21	-21	2.49
Cc1ccnn1CCN1CC[C@H](O)CC(C)(C)C1	-14	2.62
CC(C)N1CCN([C@H]2CCOC3(CCN(S(=O)(=O)Cc4ccccc4)CC3)C2)CC1	-11	1.22
C=CCN(CC=C)C(=O)c1cccc(F)c1C#N	-8	0.95
Cc1nc(CN[C@H](C)c2ccc(Br)cc2)cs1	-10	1.29
Cc1csc(CNC(=O)C2=NN(C)C(=O)CC2)n1	6	-1.05
COc1ccc(-c2cc(C(=O)NCc3nnc4ccccn34)[nH]n2)cc1OC	-12	1.49
O=C(Nc1c(F)cccc1F)N1CCC(Oc2ccccn2)CC1	-11	2.13
O=C(NCc1cccc(F)c1)[C@H]1CC[C@H](Cn2cnnn2)CC1	-17	2.09
O=C1Cc2cc(S(=O)(=O)Nc3ccccc3C(=O)NCc3ccco3)ccc2N1	-32	3.76
COc1ccc(CNC(=O)CC2CCN(S(=O)(=O)c3ccc4c(c3)CCN4C(C)=O)CC2)cc1	-17	1.62
Cc1ccc(N2CCN(Cc3nc(C(=O)NCc4ccccc4)co3)CC2)cc1	-4	0.67
Cc1noc(C)c1CCC(=O)N1C[C@@H]2C[C@H]1C(=O)N2c1cccc(Cl)c1	-1	0.11
CC1CCN(C(=O)c2cnnn2C)C1c1ccc(C(F)(F)F)cc1 (stereo not drawn)	-3	0.52

Compound	% Inhibition [%]	Z score
O=C(Nc1ccccc1Cc1ccccc1)N1CCCN2CCC[C@H]2C1	-1	0.1
Cn1nc(C(=O)NC(c2ccc(F)cc2)C2CCCO2)ccc1=O (stereo not drawn)	-14	1.78
c1cc2c(cc1-c1noc(C3CCNCC3)n1)OCO2	0	0.04
CCCCS(=O)(=O)N[C@@H](CC)c1nccs1	-15	1.48
O=C(NCc1nc2c(s1)COCC2)c1ccc2c(c1)CCCC2	38	-3.89
OC1CCN(c2ccc3nnnn3n2)CC1	-9	1.33
CCc1ccc(CNC(=O)c2ccc(-c3c(-c4ccc(C)cc4)ncn3C3CCCC3)o2)cc1	-9	1.69
O=C(Cc1ccc(F)cc1)NCC1=CCCN(Cc2c[nH]cn2)C1	-1	0.15
COc1ccc(CN2CCCC23CCN(c2ncccn2)CC3)cc1O	-19	1.88
O=S(=O)(NCc1ccc(Cn2ccnc2)cc1)c1ccc(F)cc1	-2	0.25
Cn1cc(C(=O)N2CCC(C(=O)O)(n3ccnc3)CC2)c2ccccc21	-3	0.27
C#CCN(CC#C)Cc1cnn(CC)c1	5	-0.53
Cc1noc(C(C)(C)NC(=O)Nc2nc(C(C)(C)C)ns2)n1	-4	0.64
O=C(c1cc(O)nc2ccccc12)N1CCN(c2cnccn2)CC1	4	-0.62
CCOCCC(=O)N[C@H]1CC(=O)Nc2ccccc21	6	-1.12
O=C(Cc1ccccc1Br)Nc1ccc2c(c1)C(=O)NC2	4	-0.66
CN1C(=O)N(C)C2=NNC(c3ccc(N(C)C)cc3)=N[C@@]2(c2c[nH]c3ccccc23)C1=O	-8	1.04
O=C(CCCOc1ccc(Cl)cc1Cl)NC1CCC(CC2CCC(NC(=O)CCCOc3ccc(Cl)cc3Cl)CC2)CC1 (stereo not drawn)	-4	0.61
Cc1ccc(-c2csc(-c3nc(-c4ccccc4)cs3)n2)c(C)c1	10	-1.13
CC1CCCCC1OCCNS(C)(=O)=O (stereo not drawn)	-4	0.34
Cc1ccc(NC(=O)CNc2cc(S(=O)(=O)N3CCOCC3)ccc2NC[C@H]2CCCO2)cc1F	-10	1.67

Compound	% Inhibition [%]	Z score
OC1CCC(CNc2ncc(Cl)cc2Br)C1 (stereo not drawn)	-10	1.01
COCCOc1cc(C(=O)OC)ccc1N	3	-0.36
Cc1ccc2c(c1)NC(=O)c1cc(S(=O)(=O)N3CCCCC3)c(N3CCOCC3)cc1O2	-6	0.85
O=C(NC1CCCCC1)[C@H](Cc1ccccc1)n1cnnn1	-1	0.08
CCCn1nccc1C(=O)NC[C@H]1Cc2ccccc2O1	-16	2.08
O=S(=O)(c1ccc(OC2CC2)cc1)N1CCn2nncc2C1	-3	0.43
O=C([C@@H]1CC(Cc2ccccc2Cl)=NO1)N1CCCCCC1	14	-1.83
CCC(CC)n1ncc2c1NC(=O)C[C@@H]2c1cccc2nsnc12	-5	1.04
O=C1NCCCCCN(Cc2c[nH]nc2-c2cccs2)[C@H]2CCC[C@@H]12	4	-0.51
COCC(=O)N1CC[C@@]2(CCCN(CC3CC3)C2=O)C1	-13	1.87
CCc1cccc(NC(=O)CN2CCC[C@H](n3cncn3)C2)c1	-16	1.72
CCC(C)C(NC(=O)Nc1cccc(OC)c1)C(=O)O (stereo not drawn)	-8	1.18
O=C(NCCc1ccc(Cl)cc1)N1C[C@@H](F)[C@@H](F)C1	2	-0.17
CCn1nc(CO)c2c1CCN(S(=O)(=O)N(C)Cc1ccccc1)C2	-8	0.91
C[C@H](NC(=O)N(C)Cc1nnc[nH]1)c1cc(Cl)ccc1Cl	-4	0.64
O=C(Cc1ccc(N(Cc2cccc(F)c2)C(=O)C2CCCC2)cc1)NCCN1CCCCC1	59	-9.89
COc1cc(C)nc(NC(=O)c2ccc(C)nc2C)n1	0	-0.02
COC(=O)Cc1nnc2cc(Cl)ccc2n1	6	-0.93
CCN(CC)C(=O)C1CCN(C2CCN(c3ccc(NC(=O)c4ccc(C)cc4C)cc3)CC2)CC1	-3	0.58
Cc1cc(O)nc(C(C)NC(C)c2cc(C)oc2C)n1 (stereo not drawn)	-47	5.46
CCc1ccc(C(=O)N2CCC(N3C(=O)CC[C@H]3C(=O)NCc3ccccc3)CC2)cc1	-9	1.57

Compound	% Inhibition [%]	Z score
CCn1c(COC(=O)[C@H](C)N2C(=O)c3ccc(C)cc3C2=O)nc2cc(S(=O)(=O)N(C)C)ccc21	-6	0.71
OC[C@H]1CCCN1C1Cc2ccccc2C1	-11	1.38
Cn1cc(C(NC(=O)c2cc(-c3ccccc3F)n[nH]2)[C@H]2C[C@@H](O)C2)cn1 (stereo partly drawn)	-15	1.49
C[C@@H](C(=O)Nc1scnc1C1CC1)n1cncn1	-11	1.09
O=C(NC[C@H]1CCCN1CC(F)(F)F)c1cnccn1	-4	0.71
O=C(Cc1n[nH]c(=O)c2ccccc12)Nn1cnc2ccccc2c1=O	-4	0.6
CC(C)c1ccc2c(c1)CCC1C(C)(CNCc3ccc4c(c3)OCO4)CCCC21C (stereo not drawn)	18	-2.21
C[C@@H]1C(=O)N(c2cnn(CC(F)F)c2)C(=O)N1C	1	-0.15
CCCN1C(=O)[C@@H]2CC[C@H]1CN(C(=O)Cc1ccc(OC)c(OC)c1)C2	-5	1.03
C[C@@H](Cn1ncc2ccccc2c1=O)Nc1ncnc(N)c1Cl	-4	0.6
Cc1cc(C(=O)N2CCc3nc(NC(=O)NC4CCCC4)sc3C2)no1	-10	1.42
CCc1onc(C)c1CN[C@@H](c1ccc(F)cc1)c1cccc(S(C)(=O)=O)c1	7	-0.76
CN1C(=O)CN(CC(=O)Nc2cccc(CCC(F)(F)F)c2)C1=O	-6	0.69
CC(C)CN1CCO[C@@H](COC(=O)c2cc(C#N)cn2C)C1	-9	1.72
O=C(Cc1nc(Cc2ccc(F)cc2)n[nH]1)Nc1cc(F)cc(F)c1	-16	2.1
CC[C@H](C)OCC(=O)Nc1nc(-c2ccncc2)ns1	-11	1.13
CCOc1cccc(NS(=O)(=O)c2cscc2C(F)F)n1	-7	1.25
COC(=O)[C@H](Cc1nccn1C)NC(=O)CCC1CCCCCC1	-8	1.29
Cc1cccc(NC(=O)C2CCN(S(=O)(=O)c3c(C)nn(-c4ccccc4)c3C)CC2)c1	3	-0.49
O=C(c1c(F)cccc1F)N1C[C@@H](CN2CCCCC2)[C@@H](CO)C1	0	-0.01
CN1CCN([C@@H](CNC(=O)Nc2ccncc2)c2cccs2)CC1	2	-0.27
